# Laboratory results published in PubChem BioAssay (Tox21).
# “And” between values parts separate entries of the source, which are not always exact repeats. Equal entries are not always repeated. This list was built around the results that the source calls inconclusive (neither active nor inactive); the mix of calls is not that of the screen. The source made the active and inactive calls. The call rests on the fitted dose curve; in most records, active means well fitted inhibition curve with a large enough effect in the signal ratio in the repeat runs (not every such curve was filed as active); inconclusive means weak or mixed curves, or effect the other way; inactive means no such curve, though single readings can be large or run the other way; the % refers to the signal ratio.
# Target: Glucocorticoid receptor (Homo sapiens) (UniProt P04150)
# Assay: qHTS assay to identify small molecule antagonists of the glucocorticoid receptor (GR) signaling pathway (AID 720692)
# Details: GR-bla HeLa, beta-lactamase FRET ratio, dexamethasone-stimulated, 18 h; activity change, negative = inhibition: at 58.5 µM (top of the series) unless noted
# Method in brief: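 Quantitative HTS in antagonist format: HeLa cells expressing endogenous GR and a stably integrated GRE-bla reporter, stimulated with 5 nM dexamethasone (final) alongside test compounds for 18 h.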
# On the % scale 0 is the no-effect control and ±100 the full control effect; potency means the concentration at half of the fitted maximal effect.
# Chain of UniProt P04150 (P04150 whole entry, looked up): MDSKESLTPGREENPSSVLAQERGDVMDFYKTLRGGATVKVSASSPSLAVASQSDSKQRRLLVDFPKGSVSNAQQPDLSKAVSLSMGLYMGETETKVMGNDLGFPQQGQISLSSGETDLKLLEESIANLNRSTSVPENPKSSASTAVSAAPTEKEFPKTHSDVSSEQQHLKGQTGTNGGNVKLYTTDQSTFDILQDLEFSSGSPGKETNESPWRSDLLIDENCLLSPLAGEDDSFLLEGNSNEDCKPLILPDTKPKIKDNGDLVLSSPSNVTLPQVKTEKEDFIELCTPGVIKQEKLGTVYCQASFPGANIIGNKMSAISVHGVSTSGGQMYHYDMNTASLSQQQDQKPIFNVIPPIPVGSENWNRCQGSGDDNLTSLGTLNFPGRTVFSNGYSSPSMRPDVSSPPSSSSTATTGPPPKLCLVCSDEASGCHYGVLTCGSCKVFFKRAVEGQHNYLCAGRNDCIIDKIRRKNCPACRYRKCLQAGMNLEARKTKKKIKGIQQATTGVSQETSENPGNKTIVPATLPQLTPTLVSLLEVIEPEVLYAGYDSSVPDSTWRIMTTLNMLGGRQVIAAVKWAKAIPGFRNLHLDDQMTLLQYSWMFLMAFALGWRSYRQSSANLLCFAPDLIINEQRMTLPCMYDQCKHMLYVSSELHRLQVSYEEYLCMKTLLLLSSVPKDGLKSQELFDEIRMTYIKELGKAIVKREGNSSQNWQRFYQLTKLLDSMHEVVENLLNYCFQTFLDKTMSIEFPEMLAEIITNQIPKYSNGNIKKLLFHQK
Structure (SMILES),"activity change, negative = inhibition",Potency
Nc1nc(N)nc(-c2ccccc2)n1,inconclusive: -26.9%,–
O=c1cc(-c2ccccc2)oc2cc(O)cc(O)c12,–,active: 19.5 µM
Oc1ccc(C(c2ccc(O)cc2)C(Cl)(Cl)Cl)cc1,–,active: 21.9 µM
Clc1ccc(Nc2nnc(Cc3ccncc3)c3ccccc23)cc1,inconclusive: -54.1% and inconclusive: -24.6%,–
